{"source": "paper PMC4336329", "about": "(PLoS ONE, 2015)", "note": "Out of some 310,000 compounds screened, about 14,000 (4.5%) showed an effect of 50% or more. The effect is printed as a negative number. The list shows a part of the results.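 Note: peak tail current of the secondary pulse compared with the same well before compound.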", "data": [{"target": "human ether-à-go-go-related gene (hERG) potassium channel (human, UniProt Q12809)", "sequence (Q12809 whole entry, looked up)": "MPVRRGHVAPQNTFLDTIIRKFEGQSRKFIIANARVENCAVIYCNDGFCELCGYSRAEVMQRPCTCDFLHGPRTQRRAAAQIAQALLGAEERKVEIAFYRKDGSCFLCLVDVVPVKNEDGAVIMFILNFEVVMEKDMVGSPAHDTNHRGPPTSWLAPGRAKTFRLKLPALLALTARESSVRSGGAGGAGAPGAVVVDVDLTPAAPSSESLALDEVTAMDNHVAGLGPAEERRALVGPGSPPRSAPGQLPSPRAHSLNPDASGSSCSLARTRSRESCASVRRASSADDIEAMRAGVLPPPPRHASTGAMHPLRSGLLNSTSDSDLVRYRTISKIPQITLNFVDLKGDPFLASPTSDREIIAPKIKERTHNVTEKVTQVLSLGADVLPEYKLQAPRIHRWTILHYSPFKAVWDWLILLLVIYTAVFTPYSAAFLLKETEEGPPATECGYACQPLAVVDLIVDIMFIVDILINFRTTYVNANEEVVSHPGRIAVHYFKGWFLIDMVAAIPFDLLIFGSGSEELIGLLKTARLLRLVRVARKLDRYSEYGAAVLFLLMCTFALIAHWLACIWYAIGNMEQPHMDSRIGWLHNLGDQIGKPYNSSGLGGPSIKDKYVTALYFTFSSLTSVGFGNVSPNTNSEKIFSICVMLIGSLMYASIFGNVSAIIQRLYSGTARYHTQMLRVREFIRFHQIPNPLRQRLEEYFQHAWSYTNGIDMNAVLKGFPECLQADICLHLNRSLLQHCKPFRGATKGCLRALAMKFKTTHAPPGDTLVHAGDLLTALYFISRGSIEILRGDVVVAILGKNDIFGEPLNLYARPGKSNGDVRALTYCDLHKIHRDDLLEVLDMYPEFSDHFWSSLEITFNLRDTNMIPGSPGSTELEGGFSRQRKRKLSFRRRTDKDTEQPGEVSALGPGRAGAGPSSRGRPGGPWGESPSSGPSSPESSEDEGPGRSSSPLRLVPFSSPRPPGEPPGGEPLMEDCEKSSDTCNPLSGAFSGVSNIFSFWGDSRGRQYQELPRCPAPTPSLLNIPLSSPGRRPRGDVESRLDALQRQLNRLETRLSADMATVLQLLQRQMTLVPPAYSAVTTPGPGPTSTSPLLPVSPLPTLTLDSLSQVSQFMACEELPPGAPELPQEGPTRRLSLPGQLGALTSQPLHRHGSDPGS", "experiment": "primary screen, population patch clamp on CHO cells stably expressing hERG", "units": {"hERG current change (%, negative = inhibition) at 10uM": "%"}, "values": [{"smiles": "CCSc1nnc(NC(=O)CCn2c(=O)oc3ccccc32)s1", "hERG current change (%, negative = inhibition) at 10uM": 14.1}, {"smiles": "CCOc1ccc(CN(C)C(=O)c2cccc(S(=O)(=O)N3CCCC3)c2)cc1OC", "hERG current change (%, negative = inhibition) at 10uM": -27.2}, {"smiles": "CCOC(=O)C1(P(=O)(c2ccc(Cl)cc2)c2ccc(Cl)cc2)CCC1", "hERG current change (%, negative = inhibition) at 10uM": -25.2}, {"smiles": "Cc1ccc(C(CC(=O)N2CCCC2)c2ccccc2)c(O)c1", "note": "(centres unmarked)", "hERG current change (%, negative = inhibition) at 10uM": 4.04}, {"smiles": "COC(=O)COc1ccc(NS(=O)(=O)c2cccc([N+](=O)[O-])c2)cc1", "hERG current change (%, negative = inhibition) at 10uM": -0.349}, {"smiles": "O=C(COC(=O)C1(c2ccc(F)cc2)CCCC1)NCc1ccco1", "hERG current change (%, negative = inhibition) at 10uM": -2.02}, {"smiles": "Clc1ccc(OCCCCCN2CCOCC2)cc1", "hERG current change (%, negative = inhibition) at 10uM": -37.6}, {"smiles": "O=C1NC(=O)C(=Cc2ccc(N3CCN(C(=O)c4ccccc4)CC3)c([N+](=O)[O-])c2)C(=O)N1", "hERG current change (%, negative = inhibition) at 10uM": -67.1}, {"smiles": "O=C(NCCc1c[nH]c2ccccc12)/C(=C\\c1cccnc1)NC(=O)c1ccccc1F", "hERG current change (%, negative = inhibition) at 10uM": -58.5}, {"smiles": "COC1=C(OC)c2ccccc2C(C(=O)O)N/C1=C(/C)Nc1ccncc1", "note": "(centres unmarked)", "hERG current change (%, negative = inhibition) at 10uM": -7.81}, {"smiles": "O=C(CC1(O)C(=O)Nc2ccccc21)c1ccc2c(c1)OCO2", "note": "(centres unmarked)", "hERG current change (%, negative = inhibition) at 10uM": -3.95}, {"smiles": "C[C@H](NC(=O)c1nc[nH]c1C(=O)N[C@@H](Cc1ccccc1)C(=O)OCc1ccccc1)c1ccccc1", "hERG current change (%, negative = inhibition) at 10uM": 16.9}, {"smiles": "COc1ccc(NS(=O)(=O)c2ccc(-c3coc(C)n3)cc2)cc1OC", "hERG current change (%, negative = inhibition) at 10uM": 12.8}, {"smiles": "Cc1ccc(N(CC(=O)N2CCn3c2nc2ccccc23)S(=O)(=O)c2c(C)n[nH]c2C)cc1", "hERG current change (%, negative = inhibition) at 10uM": -27.2}, {"smiles": "CCn1cnc2cc(NCc3ccc(Cl)cc3)ccc21", "hERG current change (%, negative = inhibition) at 10uM": -68}, {"smiles": "Cc1c(C(=O)N(C)C2CCCCC2)sc2ncnc(N3CCN(c4ccccc4F)CC3)c12", "hERG current change (%, negative = inhibition) at 10uM": -2.89}, {"smiles": "CCCN1CCN(CCCNC(=O)c2ccc(NC(=O)C3=C(C)OCCS3)cc2)CC1", "hERG current change (%, negative = inhibition) at 10uM": 1.83}, {"smiles": "Cc1cc(=O)oc2cc(OCC(=O)NC3CC(C)(C)NC(C)(C)C3)c(Cl)cc12", "hERG current change (%, negative = inhibition) at 10uM": 25.8}, {"smiles": "O=C(C1CC(c2ccc(F)cc2)=NO1)N1CCCc2ccccc21", "note": "(centres unmarked)", "hERG current change (%, negative = inhibition) at 10uM": -28}, {"smiles": "COC(=O)c1cc(CSc2nnc(-c3ccccc3)c(-c3ccccc3)n2)oc1C", "hERG current change (%, negative = inhibition) at 10uM": 13.1}, {"smiles": "Cc1cc(C(=O)N[C@H](c2ccccc2)[C@@]2(C)C[C@@H]2[C@@H](C)C(=O)Nc2ccc3ccccc3c2)no1", "hERG current change (%, negative = inhibition) at 10uM": -0.526}, {"smiles": "Cc1nn(-c2ccccc2)c(C)c1NC(=O)COC(=O)c1ccccc1OC(F)F", "hERG current change (%, negative = inhibition) at 10uM": 19.4}, {"smiles": "CSc1cccc(CN2CCN(Cc3ccccc3)C(CCO)C2)c1", "note": "(centres unmarked)", "hERG current change (%, negative = inhibition) at 10uM": -57.7}, {"smiles": "Cc1ccc(Sc2oc(/C=N/n3cnnc3)cc2Br)cc1", "hERG current change (%, negative = inhibition) at 10uM": 4.35}, {"smiles": "CC(=O)NCCc1ccc(S(=O)(=O)Nc2ccc3c(c2)OCCO3)cc1", "hERG current change (%, negative = inhibition) at 10uM": 12.3}, {"smiles": "COc1cccc(-c2nc3ccccc3s2)c1", "hERG current change (%, negative = inhibition) at 10uM": 2.76}, {"smiles": "NC(=O)c1ccc2c(c1)OCCO2", "hERG current change (%, negative = inhibition) at 10uM": 6.04}, {"smiles": "CC(C)Oc1ccccc1C1CC(=O)Nc2cc3c(cc21)OCCO3", "note": "(centres unmarked)", "hERG current change (%, negative = inhibition) at 10uM": -22.4}, {"smiles": "O=C(Nc1ccc(NC(=O)c2ccccc2Cl)nc1)c1ccco1", "hERG current change (%, negative = inhibition) at 10uM": 2.09}, {"smiles": "O=C(OCC(=O)c1ccc(Cl)s1)c1ccccn1", "hERG current change (%, negative = inhibition) at 10uM": 13.9}, {"smiles": "Cl.O=C(COc1ccccc1F)NC1CCN(Cc2ccccc2)CC1", "hERG current change (%, negative = inhibition) at 10uM": -38.5}, {"smiles": "Cc1cc(C)c(NC(=S)N(CCN(C)C)C(C)c2cccnc2)c(C)c1", "note": "(centres unmarked)", "hERG current change (%, negative = inhibition) at 10uM": -14.9}, {"smiles": "Cc1ccc(NC(=O)CCC(=O)NNC(=O)c2ccccc2)c(C)c1", "hERG current change (%, negative = inhibition) at 10uM": 20.7}, {"smiles": "O=C(CCC(=O)N1CCN(c2ccc(O)cc2)CC1)c1ccc(Br)cc1", "hERG current change (%, negative = inhibition) at 10uM": -44.4}, {"smiles": "Cn1nc(C(=O)Nc2ccc(S(=O)(=O)Nc3ncccn3)cc2)ccc1=O", "hERG current change (%, negative = inhibition) at 10uM": 0.865}, {"smiles": "C=CCN1C(=O)C(CC(=O)Nc2ccccc2)S/C1=N/c1nccs1", "note": "(centres unmarked)", "hERG current change (%, negative = inhibition) at 10uM": -1.67}, {"smiles": "NC(=O)COC(=O)c1ccc(Oc2ccccc2)cc1", "hERG current change (%, negative = inhibition) at 10uM": -2.12}, {"smiles": "CCCn1c(-c2ccc(F)cc2)n[nH]c1=S", "hERG current change (%, negative = inhibition) at 10uM": 4.33}, {"smiles": "Clc1ccc(N2CCNCC2)nn1", "hERG current change (%, negative = inhibition) at 10uM": 13.1}, {"smiles": "Cc1ccc2c(Cl)cc(Cl)c(OCC(=O)NC3CCS(=O)(=O)C3)c2n1", "note": "(centres unmarked)", "hERG current change (%, negative = inhibition) at 10uM": -21.2}, {"smiles": "O=C(NC(=S)N1CCCc2ccccc21)c1ccc([N+](=O)[O-])cc1", "hERG current change (%, negative = inhibition) at 10uM": 5.8}, {"smiles": "CCOC(=O)CSc1nnc(CNc2cccc(Cl)c2)n1C", "hERG current change (%, negative = inhibition) at 10uM": 9.29}, {"smiles": "Cc1nnsc1NC(=O)OCc1ccc(C(C)(C)C)cc1", "hERG current change (%, negative = inhibition) at 10uM": 7.32}, {"smiles": "Cc1ccccc1NC(=O)C1CCCN(c2ncnc3onc(-c4ccc(F)cc4)c23)C1", "note": "(centres unmarked)", "hERG current change (%, negative = inhibition) at 10uM": -9.58}, {"smiles": "COc1ccc2c(=O)c(-c3ccc(OC)c(OC)c3)coc2c1", "hERG current change (%, negative = inhibition) at 10uM": -11.2}, {"smiles": "CCOC(=O)c1nc(Nc2cc(C)cc(C)c2)c2ccccc2n1", "hERG current change (%, negative = inhibition) at 10uM": -5.78}, {"smiles": "CC(C)Oc1ccc(/C=C(/NC(=O)c2ccccc2)C(=O)NCCC(=O)O)cc1", "hERG current change (%, negative = inhibition) at 10uM": 11.3}, {"smiles": "COc1ccc(N2CCN(C(=O)CSc3nc4c(c(=O)n(C)c(=O)n4C)n3C(C)C)CC2)cc1", "hERG current change (%, negative = inhibition) at 10uM": -50.2}, {"smiles": "O=C(CSc1nnc(COc2ccccc2F)n1-c1ccccc1)NCc1ccco1", "hERG current change (%, negative = inhibition) at 10uM": -17.6}, {"smiles": "COc1ccc(NC(=O)CSCC(=O)NCCc2ccccn2)cc1", "hERG current change (%, negative = inhibition) at 10uM": 15.7}, {"smiles": "Cc1ccc2nc(NC(=O)CSCc3ccccc3)sc2c1", "hERG current change (%, negative = inhibition) at 10uM": 1.11}, {"smiles": "COc1ccc(CSc2nnc(C)s2)cc1F", "hERG current change (%, negative = inhibition) at 10uM": 5.4}, {"smiles": "Br.Nc1ncc([N+](=O)[O-])cc1Br", "hERG current change (%, negative = inhibition) at 10uM": -2.75}, {"smiles": "FC(F)(F)c1cccc(-c2ccc(-c3csnn3)o2)c1", "hERG current change (%, negative = inhibition) at 10uM": 7.11}, {"smiles": "O=C1c2ccccc2C(=O)N1CCCCN(C(=O)c1ccco1)c1ccc(Cl)cc1", "hERG current change (%, negative = inhibition) at 10uM": -55.7}, {"smiles": "O=C(Cn1c(NCCO)nc2ccccc21)NCCc1ccccc1", "hERG current change (%, negative = inhibition) at 10uM": 13.4}]}]}
